# Source: the supplement of paper PMC8728848
# Some of the results follow.
# Key:
# Assay in all cases: glycan array binding signal (z-score within array); higher = stronger binding
# Settings in all cases: glycan notation: IUPAC condensed, linker removed; mutation: F335Y
# [1] = biological target: Neu5Ac(a2-3)Gal(b1-3)[Fuc(a1-4)]GlcNAc(b1-3)Gal(b1-4)[Fuc(a1-3)]GlcNAc
# How it was run: (§1)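 Columns mapping to the same glycan were averaged after glycan names were converted to IUPAC-condensed notation. The data come from 3228 arrays in the Consortium for Functional Glycomics database, limited to those with an available protein sequence. Binding is reported as a within-array Z-score averaged across arrays of one protein sequence and across linkers.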
# [2] = biological target: Neu5Ac(a2-3)Gal(b1-3)[Neu5Ac(a2-3)Gal(b1-4)]GlcNAc
# How it was run: as §1
# [3] = biological target: Neu5Ac(a2-3)Gal(b1-3)[Neu5Ac(a2-6)]GalNAc
# How it was run: as §1
# Neu5Ac(a2-3)Gal(b1-4)Glc = biological target: Neu5Ac(a2-3)Gal(b1-4)Glc
# How it was run: as §1
# [4] = biological target: Neu5Ac(a2-3)Gal(b1-4)GlcNAc
# How it was run: as §1
# [5] = biological target: Neu5Ac(a2-3)Gal(b1-4)GlcNAc(b1-2)Man(a1-3)[GlcNAc(b1-2)Man(b1-4)GlcNAc(b1-2)Man(a1-6)]Man(b1-4)GlcNAc(b1-4)GlcNAc
# How it was run: as §1
# [6] = biological target: Neu5Ac(a2-3)Gal(b1-4)GlcNAc(b1-2)Man(a1-3)[Neu5Ac(a2-6)Gal(b1-4)GlcNAc(b1-2)Man(a1-6)]Man(b1-4)GlcNAc(b1-4)GlcNAc
# How it was run: as §1
# [7] = biological target: Neu5Ac(a2-3)Gal(b1-4)GlcNAc(b1-3)Gal(b1-3)GlcNAc
# How it was run: as §1
# [8] = biological target: Neu5Ac(a2-3)Gal(b1-4)GlcNAc(b1-3)Gal(b1-4)GlcNAc
# How it was run: as §1
# [9] = biological target: Neu5Ac(a2-3)Gal(b1-4)GlcNAc(b1-3)Gal(b1-4)GlcNAc(b1-3)Gal(b1-4)GlcNAc
# How it was run: as §1
# [10] = biological target: Neu5Ac(a2-3)Gal(b1-4)GlcNAc(b1-3)Gal(b1-4)[Fuc(a1-3)]GlcNAc
# How it was run: as §1
# [11] = biological target: Neu5Ac(a2-3)Gal(b1-4)GlcNAc(b1-6)[Gal(b1-3)]GalNAc
# How it was run: as §1
# [12] = biological target: Neu5Ac(a2-3)Gal(b1-4)GlcNAc(b1-6)[Neu5Ac(a2-3)Gal(b1-3)]GalNAc
# How it was run: as §1
# [13] = biological target: Neu5Ac(a2-3)Gal(b1-4)GlcNAc6S
# How it was run: as §1
# [14] = biological target: Neu5Ac(a2-3)Gal(b1-4)[Fuc(a1-3)]GlcNAc
# How it was run: as §1
# [15] = biological target: Neu5Ac(a2-3)Gal(b1-4)[Fuc(a1-3)]GlcNAc(b1-3)Gal
# How it was run: as §1
# [16] = biological target: Neu5Ac(a2-3)Gal(b1-4)[Fuc(a1-3)]GlcNAc(b1-3)Gal(b1-4)GlcNAc
# How it was run: as §1
# [17] = biological target: Neu5Ac(a2-3)Gal(b1-4)[Fuc(a1-3)]GlcNAc(b1-3)Gal(b1-4)[Fuc(a1-3)]GlcNAc(b1-3)Gal(b1-4)[Fuc(a1-3)]GlcNAc
# How it was run: as §1
# [18] = biological target: Neu5Ac(a2-3)Gal(b1-4)[Fuc(a1-3)]GlcNAc(b1-6)[Gal(b1-3)]GalNAc
# How it was run: as §1
# [19] = biological target: Neu5Ac(a2-3)Gal(b1-4)[Fuc(a1-3)]GlcNAc6S
# How it was run: as §1
# [20] = biological target: Neu5Ac(a2-3)Gal6S(b1-4)GlcNAc
# How it was run: as §1
# [21] = biological target: Neu5Ac(a2-3)Gal6S(b1-4)[Fuc(a1-3)]GlcNAc
# How it was run: as §1
# Neu5Ac(a2-3)GalNAc = biological target: Neu5Ac(a2-3)GalNAc
# How it was run: as §1
# [22] = biological target: Neu5Ac(a2-3)GalNAc(b1-4)GlcNAc
# How it was run: as §1
# [23] = biological target: Neu5Ac(a2-3)[GalNAc(b1-4)]Gal(b1-4)Glc
# How it was run: as §1
# [24] = biological target: Neu5Ac(a2-3)[GalNAc(b1-4)]Gal(b1-4)GlcNAc
# How it was run: as §1
# [25] = biological target: Neu5Ac(a2-3)[Neu5Ac(a2-6)]GalNAc
# How it was run: as §1
# Neu5Ac(a2-6)Gal = biological target: Neu5Ac(a2-6)Gal
# How it was run: as §1
# Neu5Ac(a2-6)Gal(b1-4)Glc = biological target: Neu5Ac(a2-6)Gal(b1-4)Glc
# How it was run: as §1
binder,measurement,setting,value
Surfactant Protein D (Human); Neck + Carbohydrate Recognition Domain (NCRD) (Homo sapiens) (protein) MLLFLLSALVLLTQPLGYLEAEMKTYSHRTMPSACTLVMCSSVESGLPGRDRDGREGPRGEKGDPGLPGAAGQAGMPGQAGPVGPKGDNGSVGEPGPKGDTGPSGPPGPPGVPGPAGREGALGKQGNIGPQGKPGPKGEAGPKGEVGAPGMQGSAGARGLAGPKGERGVPGERGVPGNTGAAGSAGAMGPQGSPGARGPPGLKGDKGIPGDKGAKGESGLPDVASLRQQVEALQGQVQHLQAAFSQYKKVELFPNGQSVGEKIFKTAQFVKPFTEAQLLCTQAGGQLASPRSAAENAALQQLVVAKNEAAFLSMTDSKTEGKFTYPTGESLVYSNWAPGEPNDDGGSEDCVEIYTNGKWNDRACGEKRLVVCEF,glycan array binding signal (z-score),[1],-0.071
same,glycan array binding signal (z-score),[2],-0.185
same,glycan array binding signal (z-score),[3],-0.166
same,glycan array binding signal (z-score),Neu5Ac(a2-3)Gal(b1-4)Glc,-0.189
same,glycan array binding signal (z-score),[4],-0.188
same,glycan array binding signal (z-score),[5],-0.182
same,glycan array binding signal (z-score),[6],-0.164
same,glycan array binding signal (z-score),[7],-0.184
same,glycan array binding signal (z-score),[8],-0.189
same,glycan array binding signal (z-score),[9],-0.183
same,glycan array binding signal (z-score),[10],-0.164
same,glycan array binding signal (z-score),[11],-0.186
same,glycan array binding signal (z-score),[12],-0.178
same,glycan array binding signal (z-score),[13],-0.19
same,glycan array binding signal (z-score),[14],-0.182
same,glycan array binding signal (z-score),[15],-0.182
same,glycan array binding signal (z-score),[16],-0.172
same,glycan array binding signal (z-score),[17],-0.187
same,glycan array binding signal (z-score),[18],-0.077
same,glycan array binding signal (z-score),[19],-0.191
same,glycan array binding signal (z-score),[20],-0.189
same,glycan array binding signal (z-score),[21],-0.186
same,glycan array binding signal (z-score),Neu5Ac(a2-3)GalNAc,-0.177
same,glycan array binding signal (z-score),[22],-0.176
same,glycan array binding signal (z-score),[23],-0.188
same,glycan array binding signal (z-score),[24],-0.185
same,glycan array binding signal (z-score),[25],-0.192
same,glycan array binding signal (z-score),Neu5Ac(a2-6)Gal,-0.19
same,glycan array binding signal (z-score),Neu5Ac(a2-6)Gal(b1-4)Glc,-0.187
